Test results taken from the supplement of paper PMC7826260.
This is one part of the list. Each Rep nickase domain was tested in vitro on the same pool of single strands for 1 h at 37 °C with 3 µM enzyme; only the middle of the 90-letter strands is printed. The score is log2 (uncut reads / reads without enzyme); the lower, the more was cut; hits are not called. Reads are scaled to the total; uncut strands gain when others are lost, and binding without cutting may add a little.

Columns and labels:
Experiment in all cases: uncleaved DNA left, log2 of reads against the no-enzyme library (log2 ratio); higher = less cleavage (more negative = more Rep cleavage of the k-mer); sequences stand for … in CTCGTCCG…ACCGGAGA
[1] = tested on: T1, Rep nickase domain of Muscovy duck circovirus
T1 sequence (residues 1-111, tag not shown): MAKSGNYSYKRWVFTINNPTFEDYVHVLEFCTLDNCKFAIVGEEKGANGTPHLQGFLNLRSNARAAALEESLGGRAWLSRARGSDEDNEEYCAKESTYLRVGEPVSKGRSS
Procedure: (§1)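 A pool of 90-nt single-stranded DNAs with seven random bases just before the constant AC of the nick site (name = the seven bases) was cut by 3 µM recombinant His6-SUMO-tagged Rep nickase domain (300 nM DNA, 50 mM HEPES pH 8.0, 50 mM NaCl, 1 mM MnCl2, 1 h, 37 °C, three replicates). Uncut DNA was amplified and sequenced.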

[2] = tested on: T2, Rep nickase domain of banana bunchy top virus
T2 sequence (residues 1-94, tag not shown): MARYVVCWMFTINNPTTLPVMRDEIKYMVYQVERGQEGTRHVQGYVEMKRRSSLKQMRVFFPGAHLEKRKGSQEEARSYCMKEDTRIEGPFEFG
Procedure: as §1

[3] = tested on: T3, Rep nickase domain of cabbage leaf curl virus
T3 sequence (residues 1-116, tag not shown): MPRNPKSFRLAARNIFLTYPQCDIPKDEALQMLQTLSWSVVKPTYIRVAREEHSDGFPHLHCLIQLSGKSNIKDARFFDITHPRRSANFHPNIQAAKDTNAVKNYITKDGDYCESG
Procedure: as §1

[4] = tested on: T4, Rep nickase domain of chickpea chlorotic dwarf virus
T4 sequence (residues 1-124, tag not shown): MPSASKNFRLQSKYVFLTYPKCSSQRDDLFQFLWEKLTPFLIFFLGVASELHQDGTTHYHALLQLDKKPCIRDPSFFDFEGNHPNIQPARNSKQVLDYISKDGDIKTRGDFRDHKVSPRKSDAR
Procedure: as §1

[5] = tested on: T5, Rep nickase domain of faba bean necrotic yellows virus
T5 sequence (residues 1-98, tag not shown): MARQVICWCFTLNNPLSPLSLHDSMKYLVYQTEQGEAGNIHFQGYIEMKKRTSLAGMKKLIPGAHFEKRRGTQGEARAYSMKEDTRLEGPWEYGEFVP
Procedure: as §1

[6] = tested on: T6, Rep nickase domain of maize striate mosaic virus
T6 sequence (residues 1-117, tag not shown): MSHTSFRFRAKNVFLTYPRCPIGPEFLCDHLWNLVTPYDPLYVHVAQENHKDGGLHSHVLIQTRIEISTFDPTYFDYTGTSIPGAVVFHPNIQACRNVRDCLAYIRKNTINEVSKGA
Procedure: as §1

[7] = tested on: T7, Rep nickase domain of porcine circovirus 2
T7 sequence (residues 2-116, tag not shown): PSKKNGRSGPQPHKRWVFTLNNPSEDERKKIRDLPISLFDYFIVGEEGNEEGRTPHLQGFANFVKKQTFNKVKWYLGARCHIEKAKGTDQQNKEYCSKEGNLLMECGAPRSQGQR
Procedure: as §1

[8] = tested on: T8, Rep nickase domain of tomato golden mosaic virus
T8 sequence (residues 1-124, tag not shown): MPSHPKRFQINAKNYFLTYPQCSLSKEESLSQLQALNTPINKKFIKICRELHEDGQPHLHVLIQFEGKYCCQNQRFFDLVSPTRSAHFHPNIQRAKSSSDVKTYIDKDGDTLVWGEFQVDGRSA
Procedure: as §1

[9] = tested on: T9, Rep nickase domain of tomato yellow leaf curl virus
T9 sequence (residues 1-136, tag not shown): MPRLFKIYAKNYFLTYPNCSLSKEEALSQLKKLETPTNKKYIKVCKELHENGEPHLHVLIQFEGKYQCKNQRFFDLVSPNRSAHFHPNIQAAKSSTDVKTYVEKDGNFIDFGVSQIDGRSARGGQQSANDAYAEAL
Procedure: as §1

[10] = tested on: T10, Rep nickase domain of wheat dwarf virus
T10 sequence (residues 1-137, tag not shown): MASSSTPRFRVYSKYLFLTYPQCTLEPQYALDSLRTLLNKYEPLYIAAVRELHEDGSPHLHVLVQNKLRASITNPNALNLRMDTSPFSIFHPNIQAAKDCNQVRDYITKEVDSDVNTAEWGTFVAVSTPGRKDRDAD
Procedure: as §1

| Sequence | uncleaved DNA left (log2) [1] | uncleaved DNA left (log2) [2] | uncleaved DNA left (log2) [3] | uncleaved DNA left (log2) [4] | uncleaved DNA left (log2) [5] | uncleaved DNA left (log2) [6] | uncleaved DNA left (log2) [7] | uncleaved DNA left (log2) [8] | uncleaved DNA left (log2) [9] | uncleaved DNA left (log2) [10] |
| --- | --- | --- | --- | --- | --- | --- | --- | --- | --- | --- |
| AGATTTG | 0.0348 | -0.039 | -0.292 | -0.145 | 0.0458 | -0.843 | 0.147 | -0.0244 | -0.0453 | 0.0412 |
| TTTCCGT | 0.0457 | 0.00351 | -0.147 | -0.762 | -0.00364 | -0.829 | -0.136 | -0.0866 | 0.00576 | 0.0162 |
| TCACAAG | 0.0487 | 0.0954 | -0.777 | -0.693 | 0.0471 | -1.38 | 0.138 | 0.0581 | 0.129 | -0.195 |
| GCTCGAT | 0.113 | 0.0496 | 0.0947 | 0.728 | 0.041 | 0.633 | 0.0868 | -0.0666 | 0.016 | -0.0432 |
| ATTGGTT | -0.0455 | -0.0834 | 0.126 | 0.532 | -0.0231 | 1.24 | -0.342 | 0.0705 | -0.152 | -0.0434 |
| TACTTCG | -0.0817 | -0.256 | -0.994 | -0.59 | -0.15 | -1.33 | 0.115 | -0.2 | -0.149 | -0.152 |
| CATCCAG | -0.141 | -0.0423 | -0.797 | -0.446 | -0.0732 | -0.955 | 0.00447 | -0.134 | -0.149 | -0.0787 |
| CCACAAC | 0.0228 | 0.0818 | -0.0469 | -1.91 | 0.136 | -0.618 | 0.134 | 0.0496 | -0.0654 | -0.034 |
| TGATGTA | -0.116 | -0.0307 | 0.111 | -0.538 | 0.0458 | -0.113 | -0.166 | 0.0279 | 0.206 | 0.0373 |
| TAATCGG | 0.00196 | -0.00389 | 0.248 | 1.29 | -0.0564 | 1.84 | 0.0515 | 0.0602 | -0.11 | 0.00771 |
| CACGGTG | -0.0657 | -0.0579 | -0.55 | -0.628 | 0.058 | -0.835 | 0.0767 | 0.159 | 0.188 | -0.0496 |
| CTTACGT | 0.113 | 0.108 | 0.165 | -0.841 | -0.0217 | -0.302 | -0.0833 | -0.0145 | 0.0272 | 0.00548 |
| CAACGCT | 0.0532 | 0.00442 | -0.81 | -2.34 | 0.0881 | -0.728 | -0.01 | -0.0375 | -0.0223 | -0.283 |
| GGCCGAA | 0.115 | 0.216 | 0.749 | 1.58 | 0.27 | 1.96 | 0.248 | 0.115 | 0.135 | 0.281 |
| ATTCTGG | 0.162 | 0.0988 | 0.0468 | 0.231 | 0.0199 | -0.46 | 0.205 | 0.16 | -0.0697 | 0.116 |
